In all, about 310,000 compounds went through this assay and about 2,200 (0.71%) showed an effect of 50% or more. Effects have a minus sign here. The list shows a part of the results.
The compounds below were run against human ether-à-go-go-related gene (hERG) potassium channel (human, UniProt Q12809) (assay: primary screen, population patch clamp on CHO cells stably expressing hERG).
human ether-à-go-go-related gene (hERG) potassium channel, sequence (Q12809 whole entry, looked up): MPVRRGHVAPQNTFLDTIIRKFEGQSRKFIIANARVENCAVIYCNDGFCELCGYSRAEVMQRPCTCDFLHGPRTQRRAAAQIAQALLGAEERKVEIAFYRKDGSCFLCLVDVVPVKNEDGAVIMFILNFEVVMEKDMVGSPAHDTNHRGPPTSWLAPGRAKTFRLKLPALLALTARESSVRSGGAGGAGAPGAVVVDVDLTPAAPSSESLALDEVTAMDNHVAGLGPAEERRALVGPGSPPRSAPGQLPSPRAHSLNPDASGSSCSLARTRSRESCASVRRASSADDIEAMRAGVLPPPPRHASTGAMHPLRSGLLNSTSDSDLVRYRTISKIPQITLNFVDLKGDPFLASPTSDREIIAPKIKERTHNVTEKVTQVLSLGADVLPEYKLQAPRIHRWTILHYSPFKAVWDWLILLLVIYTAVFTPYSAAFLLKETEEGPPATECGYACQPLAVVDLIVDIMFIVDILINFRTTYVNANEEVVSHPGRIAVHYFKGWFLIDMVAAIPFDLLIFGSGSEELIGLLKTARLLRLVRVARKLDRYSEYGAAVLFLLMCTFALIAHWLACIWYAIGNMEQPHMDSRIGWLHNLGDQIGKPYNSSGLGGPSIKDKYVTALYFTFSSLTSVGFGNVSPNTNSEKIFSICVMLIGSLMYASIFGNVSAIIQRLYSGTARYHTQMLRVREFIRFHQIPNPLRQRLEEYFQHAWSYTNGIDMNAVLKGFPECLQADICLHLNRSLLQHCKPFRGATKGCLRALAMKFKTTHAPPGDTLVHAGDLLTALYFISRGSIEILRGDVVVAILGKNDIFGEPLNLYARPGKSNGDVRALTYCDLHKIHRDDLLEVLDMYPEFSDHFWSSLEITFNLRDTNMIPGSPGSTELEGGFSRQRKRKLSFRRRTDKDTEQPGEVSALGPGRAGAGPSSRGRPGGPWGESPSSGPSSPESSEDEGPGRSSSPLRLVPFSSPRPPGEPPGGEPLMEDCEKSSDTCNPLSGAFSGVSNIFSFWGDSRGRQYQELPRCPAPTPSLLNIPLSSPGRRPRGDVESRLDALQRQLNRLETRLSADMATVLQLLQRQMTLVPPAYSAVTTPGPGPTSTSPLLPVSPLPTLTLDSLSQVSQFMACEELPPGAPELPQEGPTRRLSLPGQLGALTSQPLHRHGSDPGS

Row | Compound | hERG current change (%, negative = inhibition) at 1uM [%]
1 | O=C(NCCS(=O)(=O)N1CCCCCC1)c1ccccc1 | 10.2
2 | Cc1ccc(Br)cc1S(=O)(=O)Nc1cccnc1 | 17.8
3 | CCCCN(C(=O)CSc1ncn[nH]1)c1c(N)n(Cc2ccccc2)c(=O)[nH]c1=O | 11.9
4 | O=C(N/N=C/c1ccccc1Cl)c1nc2ccc([N+](=O)[O-])cc2c(=O)[nH]1 | 8.9
5 | COc1ccc2c(c1)C(=O)CC(c1ccc3c(c1)OCCO3)O2 (stereo not shown) | 16.1
6 | O=C(O)c1ccccc1C1=Nc2ccc(O)cc2Oc2cc(O)ccc21 | 11.5
7 | COc1cccc(N2CCN(CC(=O)C34CC5CC(CC(C5)C3)C4)CC2)c1 | 14
8 | C=CCN(CC=C)C(=O)C(=O)c1cc(C)n(-c2ccc([N+](=O)[O-])cc2)c1C | -35.1
9 | Cc1cc(C)c(NC(=O)COC(=O)c2cc([N+](=O)[O-])ccc2N2CCOCC2)c(C)c1 | 23.8
10 | O=C(NCC1CC1)c1ccc2c3n(nc2c1)-c1ccccc1CO3 | 8.4
11 | CCNS(=O)(=O)c1ccc(CCC(=O)Nc2ccc(C(=O)OC)cc2)cc1 | 18.3
12 | O=C(COc1ccccc1Br)NCCc1nc2ccccc2[nH]1 | -0.177
13 | C#CCOCCOCCOCCNc1nc(N2CCN(C(=O)CCCCCCCCCCNC(=O)[C@@H](CCSC)n3cc(CCO)nn3)CC2)nc(N2CCN(C(=O)CCCCCCCCCCNC(=O)[C@H](CCC(=O)O)n3cc(CCCCCN)nn3)CC2)n1 | 4.75
14 | O=C(Nn1cnnc1)c1ccccc1CCc1ccccc1 | 10.2
15 | CCOC(=O)C1CCN(C(=O)CN2C(=O)c3cccnc3Oc3ccccc32)CC1 | 12.6
16 | CC1(C(=O)Oc2ccccc2)Cc2ccccc2C(=O)O1 (stereo not shown) | 7.24
17 | CCCc1cc(=O)oc2cc(C)cc(OCC(=O)Nc3ccccn3)c12 | 20.7
18 | O=C(Nc1ccc(S(=O)(=O)Nc2nccs2)cc1)c1cc(-c2ccccn2)nc2ccccc12 | 10.4
19 | CCN(CC(=O)Nc1ccccc1C(F)(F)F)C(=O)c1ccc2c(=O)n3c(nc2c1)CCC3 | 12.6
20 | O=[N+]([O-])c1ccc(/C=N/n2cn[nH]c2=S)cc1 | 21.8
21 | O=C(CN1CCN(Cc2ccccc2)C1=O)NCc1cccs1 | 12.3
22 | COc1ccc(N(CC(O)CN2C(=O)NC(C)(C)C2=O)S(=O)(=O)c2ccc(C)cc2)cc1 (stereo not shown) | -1.89
23 | COC(=O)C(c1ccccc1)N1CCCCCC1.Cl (stereo not shown) | 4.56
24 | CS(=O)(=O)N(CCc1ccccc1)CC(=O)N1CCc2ccccc2C1 | -1.07
25 | CCc1nc(NCCCN2CCOCC2)c2oc3ccccc3c2n1 | -8.01
26 | CN(C)CCNC(=O)Cn1nc(-c2ccc(Cl)cc2)ccc1=O | 2.94
27 | Cc1ccc(CC(=O)Nc2ccc(Cl)cn2)cc1 | 12.2
28 | CCN(CC)c1ccc(NC(=O)/C=C\c2ccccc2Cl)cc1 | 7.66

Row | Compound | hERG current change (%, negative = inhibition) at 1uM [%]
29 | O=C(NCCc1ccccc1)c1cnc(Cl)c(Cl)c1 | 16.6
30 | Cc1ccc(-n2c(Cc3cccn3C)nnc2SCC(=O)NCc2ccc3c(c2)OCO3)cc1 | -6.64
31 | O=C(c1ccc(CS(=O)Cc2ccc(Cl)cc2)o1)N1CCN(c2ccccc2F)CC1 (stereo not shown) | -5
32 | CCO[C@H]1OC(C(=O)NCc2ccccc2)=C[C@@H](C)[C@@H]1CCCO | 12.3
33 | Cc1cc(C(=O)N/N=C/c2cc(Br)cc(Br)c2OC(=O)c2ccccc2)n[nH]1 | 12.7
34 | CCOc1cc(-c2sc(Nc3ccccc3)n[n+]2C)ccc1OC.[Cl-] | 10.4
35 | COCCCNC(=S)Nc1cc(C)c(C)cc1C | 8.85
36 | O=C(CO)N/N=C/c1c2ccccc2cc2ccccc12 | 1.3
37 | O=C(CCCCCNC(=O)N1CCn2c1nc1ccccc12)NCc1ccc(Cl)cc1 | 8.31
38 | CCc1sc(C(=O)NCc2cc(C)n(C)n2)cc1Br | 4.86
39 | COc1ccc(-n2c(=S)[nH]c3cc(C(=O)Nc4ccc(OC)c(OC)c4)ccc3c2=O)cc1 | 11.5
40 | COc1ccc(CN2CCC(C(=O)c3ccc(F)cc3)CC2)cc1 | -81
41 | Cc1ccccc1-n1c(Cn2c(=O)sc3ccccc32)nnc1SCC(N)=O | 10.6
42 | Cc1ccc(C(=O)CCC(=O)Nc2ccccc2C)c(C)c1 | 17.7
43 | Cc1ccccc1N1C(=O)C(Oc2ccc(Cl)cc2)C1CNC(C)(C)C (stereo not shown) | 6.07
44 | Cc1ccsc1C(=O)Nc1ccc(O)c(-c2nc3ccccc3s2)c1 | 9.33
45 | CCOC(=O)c1sc2nc(NC(=O)C(C)(C)C)sc2c1C | 5.16
46 | O=c1cc(-c2ccc(C3CCCCC3)cc2)[nH][nH]1 | 11.5
47 | COc1cccc(OCCSc2nc3ccccc3c(=O)[nH]2)c1 | 9.47
48 | CC(=O)c1cccc(OC(=O)c2ccc3c(=O)n4c(nc3c2)CCC4)c1 | -0.703
49 | Cc1ccc(Cl)cc1NC(=S)N(CCN(C)C)Cc1cccs1 | 9.99
50 | COc1ccc(N2CCN(C(=S)Nc3ccc(OC)cc3OC)CC2)cc1 | 12
51 | COC(=O)CN(c1ccc(OC)cc1)S(=O)(=O)c1ccc(OC)c(OC)c1 | 0.542
52 | Cc1ccc(S(=O)(=O)C2(C(=O)N3CCN(C4CCCCC4)CC3)CC2)cc1 | 2.75
53 | CC(=O)c1ccc(NC(=O)c2cc3ccccc3o2)cc1 | 13.3
54 | Cn1nccc1C(=O)OCC(=O)Nc1nc(-c2ccccc2)cs1 | -9.27
55 | Cc1ccc(NC(=O)Cn2cc([N+](=O)[O-])nc2C)cc1C | 13.1

Source: paper PMC4336329 (PLoS ONE, 2015)
